Data published in the RNAGym collection of RNA variant scans (doi:10.1101/gad.245936.114).
Variants at the background level are over-represented here.

B1: tRNA (parent)
chain: CUCUCGGUAGCCAAGUUGGUUUAAGGCGCAAGACUUUAAUUUAUCACUACGAAAUCUUGAGAUCGGGCGUUCGACUCGCCCCCGGGAGAUUUUUUCCUCGAGCAA

Variants of: B1
Assay: nonsense suppression (GFP-seq) (ratio to wild type); higher = more function; SUP4oc tRNA, yeast GFP reporter sort-seq
Procedure, shortened: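 Each variant's nonsense suppression (GFPSEQ) is a cell-share-weighted bin median GFP/RFP relative to the unmutated parent tRNA. Yeast with genome-integrated tRNA variants from a ~3% random-mutation library, a galactose-driven GFP ochre reporter and RFP were grown in raffinose/galactose medium with 80 mg/L adenine, then sorted into GFP/RFP bins for Illumina sequencing. Variants needed ≥100 reads and ≥30 cells.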

Variant	nonsense suppression
CUCUUGGUAGCCAAGUUGGUUUAAGGCGUAAGACUUUAAUUUAUCACUACGAAAUCUUGAGAUCGGGCCUUCGACUCGCCCCGGGGAGAUUUUUUCCUCGAGCAA [C5U C29U G69C C83G]	≤ 0.026
CUCUUGGUAGUCAAGUUGGUUUAAGGCGCAAGAAUUUAAUUUAUCACUACGAAAUCUUGAGAUCGGGCGUUCGACUCGCCCCCGAGAGAUUUUUUCCUCGAGCAA [C5U C11U C34A G85A]	≤ 0.026
CUCUUGGUAGCCAAGUUGGUUUAAGGCGGAAGACUUUAAUUUAUCACUACGAAAUCUUGAGAUCGGGCGUUCGACUCGCCCCCGGGAGAUUUUUUCCUCGAGCAA [C5U C29G]	≤ 0.026
CUCUUCGUAGCCCAGUUGGUUUAAGGUGCAAGAAUUUAAUUUAUCACUACGAAAUCUGGCGAUCGGGAGUUCGACUCGCCCCCGGGAGAUUUUUUCCUCGAGCAA [C5U G6C A13C C27U C34A U58G A60C C68A]	≤ 0.026
CUCUUGGUAGCCAAGUUGGUUUAAGGCGCAAGACUUUAAUUUAUCACUACGAAAUCUUGGGACCGAGCGUUCGACUCGACCCCGGGAGAUUUUUUCCUCGAGCAA [C5U A60G U63C G66A C79A]	≤ 0.026
CUCUUGGUAGCCAAGUUGGUUUAAGGCGCAAGACUUUAAUUUAUCACUACGAAAUCUUGAGAUCGGGCGUUCGAAUCGCCCCCGGGAGAUUUUUUCCUCGAGCAA [C5U C75A]	0.209
CUCUUGGUAGCCAAGUUGGUUUACGGCGCAAGACUUUAAUUUAUCACUACGAAAUCUUGAGAUCGGGCGUUCGACUCGCCCCCGGGAGAUUUUUUCCUCGAGCAA [C5U A24C]	≤ 0.026
CUCUUGGUAGCCAAGUUGGUUUAAGGCGCAAGACUUUAAUUUAUCACUACGAACUCUUGAGAUCGGGCGUUCGACUCGCCCCCGGGAGAUUUUUUCCUCGAGCAA [C5U A54C]	≤ 0.026
CUCUUGGUAGACAAGUUGGUUUAAGGCGCAAGACUUUAAUUUAUCACUACGAAAUCUUGAGAUCGAGCGUUCGACUCGCCCCCGGGAGGUUUUUUCCUCGAGCAA [C5U C11A G66A A89G]	≤ 0.026
CUCUUGGUAGCCAAGUUGGUUUAAGGCGUAAGACUUUAAUUUAUCACUACGAACUCUUGAGAUUGGGCGUUCGACUCGCCCCCGGGUGAUUUUUUCCUCGAGCAA [C5U C29U A54C C64U A87U]	≤ 0.026
CUCUUGGUAGCCAAGUUGGUUUAAGGCGCAAGAUUUUAAUUUAUCACUACGAACUCUUGAGAUCGGGCUUUCGACUCUCCCCCGGGAGAUUUUUUCCUCGAGCAA [C5U C34U A54C G69U G78U]	≤ 0.026
CUCUUGGUAGCCAGGUUGGUUUAAGGCGCAAGACUUUAAUUUAUCACUACGAAAUCUUGAGAUCGGGCGUUCGACUCGCCCCCGGGAGAUUUUUUCCUCGAGCAA [C5U A14G]	≤ 0.026
CUCUUGGUAGCCAUGUUGGUUUAAGGCGCAAGACUUUAAUUUAUCACUACGAAAUCUUGAGAUCGGGCGUUCGACUCGCCCCCGGGAGAUUUUUUCCUCGAGCAA [C5U A14U]	≤ 0.026
CUCUUGGUAGCCAAGUUGGUUUUAGGCGCAAGACUUUAAUUUAUCACUACGAAAUCUUGAGAUCGGGCGUUCGACUCGCCCCCGGGAGAUUUUUUCCUCGAGCAA [C5U A23U]	≤ 0.026
CUCUUGGUAGCCAAGUUGGUUUGAGGCGCAAGACUUUAAUUUAUCACUACGAAAUCUUGAGAUCGGGCGUUCGACUCGCCCCCGGGAGAUUUUUUCCUCGAGCAA [C5U A23G]	0.0405
CUCUUGGUAGGCAAGUUGGUUUAAGGCGCAAGACUUUAAUUUAUCACUACGAAAUCUUGAGAUCGGGCGUUCGACUCGCCCCCGGGAGAUUUUUUCCUCGAGCAA [C5U C11G]	≤ 0.026
CUCUUGGUAGACAAGUUGGUUUAAGGCGCAAGACUUUAAUUUAUCACUACGAAAUCUUGAGAUCGGGCGUUCGACUCGCCCCCGGGAGAUUUUUUCCUCGAGCAA [C5U C11A]	≤ 0.026
CUCUUGGUAGCCAAGUUGGUUUAAGGUGCAAGACUUUAAUUUAUCACUACGAAACCUUGAGAUCGGGCGUUCGACUCGCCCCCAGGAGAUUUUUUCCUCGAGCAA [C5U C27U U55C G84A]	≤ 0.026
CUCUUGGUAGCCAAGUUGGUUUAAGGCGCAAGACUUUAAUUUAUCACUACGAAUUCUUGAGAUCGGGCGUUCGACUCGCCCUCGGGAGAUUUUUUCCUCGAGCAA [C5U A54U C82U]	≤ 0.026
CUCUUGGUAGCCAAGUUGGUUUAAGGCGAAAGACUUUAAUUUAUCACUACGAAAUCUUGUGAUCGGGCGUUCGACUCGCCCCCGCGAGAUUUUUUCCUCGAGCAA [C5U C29A A60U G85C]	≤ 0.026
CUCUUGGUAGCCAAGUUGGUUUAGGGCGCAAGGCUUUAAUUUAUCACUACGAAAUCUUGAGAUCGGGCGUUCGCCUCCCCCCCGGGAGAUUUUUUCCUCGAGCAA [C5U A24G A33G A74C G78C]	≤ 0.026
CUCUUGGUAGCCAAGUUGGUUUAAGGCGCAAGACUUUAAUUUAUCACUACGAAAUCUUGAGGUCGGGCGUUCGACUGGCUCCCGGGAGAUUUUUUCCUCGAGCAA [C5U A62G C77G C80U]	≤ 0.026
CUCUUGGUAGCUAAGUUGGUUUAAGGCGCAAGACUUUAAUUUAUCACUACGAAAUCUUGAGAUCGGGCGUUCGACUCGCCCCCGGGAGAUUUUUUCCUCGAGCAA [C5U C12U]	≤ 0.026
CUCUUGGUAGCGAAGUUGGUUUAAGGCGCAAGACUUUAAUUUAUCACUACGAAAUCUUGAGAUCGGGCGUUCGACUCGCCCCCGGGAGAUUUUUUCCUCGAGCAA [C5U C12G]	≤ 0.026
CUCUUGGUAGCCAAGUUGGUUUAGGGCGCAAGUCUUUAAUUUAUCACUACGAAAUCUUGAGACCGGGCGUUCGACUCGCCCCCGGGAGAUUUUUUCCUCGAGCAA [C5U A24G A33U U63C]	≤ 0.026
CUCUUGGUAGCCAAGUUGGUUUAAGGCGCAAGACUUUAAUUUAUCACUACGAAAUCUUGAGAUCGGGCGUUCGACUCGCCCACGGGAGAUUUUUUCCUCGAGCAA [C5U C82A]	≤ 0.026
CUCUUGGUAGCCAAGUUGGUUUAAGGCGCAAGACUUUAAUUUAUCACUACGAAAUGUUGAGAUCGGGCUUUCGACUCGCCCCCGGGAGAUUUUUUCCUCGAGCAA [C5U C56G G69U]	≤ 0.026

Variant	nonsense suppression
CUCUUGGUAGCUAAGUUGGUUUAAGGCGCAAGACUUUAAUUUAUCACUACGAAAUCUCCAGAUCGGGCGUUCGACUCGCCCCCGGGAGAUUUUUUCCUCGAGCAA [C5U C12U U58C G59C]	≤ 0.026
CUCUUGGUAGCCAAGUUGGUUUAAGGUGCAAGACUUUAAUUUAUCACUACGAAAUCUUGAGAUCGGGCGCUCGACUCGCCCCCGGGAGAUUUUUUCCUCGAGCAA [C5U C27U U70C]	≤ 0.026
CUCUUGGUAGCCAUGUUGGUUUAAGGCUCAAGACUUUAAUUUAUCACUACGAAAUCUUGAGAUCGGGCGUUCGACUCGCCCCCGGGAGAUUUUUUCCUCGAGCAA [C5U A14U G28U]	≤ 0.026
CUCUUGGUAGCCAAGUUGGUUUUAGGCGCAAGACUUUAAUUUAUCACUACGAAAUCUUGAGACCGGGCGUUCGACUCGCCCCCGGGAGAUUUUUUCCUCGAGCAA [C5U A23U U63C]	≤ 0.026
CUCUUGGUAGCCAAGUUGGUUUAAGGCGCAAGGCUUUAAUUUAUCACUACGAAAUCUUGAGACCGGGCGUUCGACUCGCCCCCGGGAGAUUUUUUCCUCGAGCAA [C5U A33G U63C]	≤ 0.026
CUCUUGGUAGCCAAGUUGGUUUAAGGCGCAAGACUUUAAUUUAUCACUACGAAAUCUUGAGAUCGGGCGUUCGACUCGACCCCGGGAGAUUUUUUCCUCGAGCAA [C5U C79A]	≤ 0.026
CUCUUGGUAGCCAAGUUGGUUUAAGGCGCAAGACUUUAAUUUAUCACUACGAAAUCUUGAGAUCGGGCGUUCGACUCGGCCCCGGGAGAUUUUUUCCUCGAGCAA [C5U C79G]	≤ 0.026
CUCUUGGUAGCCAAGUUGGUUUAUGGCGCAAGACUUUAAUUUAUCACUACGAAAUCUUGAGAUCGGGCGCUCGCCUCGCCCCCCGGAGAUUUUUUCCUCGAGCAA [C5U A24U U70C A74C G84C]	≤ 0.026
CUCUUGGUAGCCGAGCUGGUUUAAGGCGCAAGACUUUAAUUUAUCACUACGAAAUCUUGAGAUCGGGCGUUCGACUCGCCCACGGGAGAUUUUUUCCUCGAGCAA [C5U A13G U16C C82A]	≤ 0.026
CUCUUGGUAGCCAAGUUGGUUUAGGGCGCAAGACUUUAAUUUAUCACUACGAAAUCUUGAGAUCGGGCGUUCGACUCGCCCCCGGGAAAUUUUUUCCUCGAGCAA [C5U A24G G88A]	≤ 0.026
CUCUUGGUAGCCAAGUUGGUUUAAGGCGCAAGACUUUAAUUUAUCACUACGAAAUCUUGAGAUCGGGCGUUCGACUCGGCACCGGGAGAUUUUUUCCUCGAGCAA [C5U C79G C81A]	≤ 0.026
CUCUUGGUAGCCAAGUUGGUUUAAGGCGCUAGACUUUAAUUUAUCACUACGAAAUCUUGAGAACGGGCGUUCGACUCGGCCCCGGGAGAUUUUUUCCUCGAGCAA [C5U A30U U63A C79G]	≤ 0.026
CUCUUGGUAGCCAAGUUGGUUUAAGGCGCAAGACUUUAAUUUAUCACUACGAAAUCUUGAGAUCGGGCGUUCGACUCGCCCCGGGGAGAUUUUUUCCUCGAGCAA [C5U C83G]	≤ 0.026
CUCUUGGUAGCCAAGUUGGUUUAAGGCGCAAGACUUUAAUUUAUCACUACGAAAUCUUGAGAUCGGGAGUUCGACCCGCCCCCGGGAGAUUUUUUCCUCGAGCAA [C5U C68A U76C]	≤ 0.026
CUCUUGGUAGCCACGGUGGUUUAAGGCGCAAGACUUUAAUUUAUCACUACGAAAUCCUGAGAUCGGGCGUUCGACUCGCCCACGGGAGAUUUUUUCCUCGAGCAA [C5U A14C U16G U57C C82A]	≤ 0.026
CUCUUGGUAGCCAAGUUGGUUUAAGGCGCAAGAAUUUAAUUUAUCACUACGAAAUCUUGAGAUCGGGCGUUCGACUCGCCCCCGGGAGAUUUUUUCCUCGAGCAA [C5U C34A]	≤ 0.026
CUCUUGGUAGCCAAGUUGGUUUAAGGCGCAAGACUUUAAUUUAUCACUACGAAAUAUUGAGAUCGGGCGUUCGACUCGCGCCCAGGAGAUUUUUUCCUCGAGCAA [C5U C56A C80G G84A]	≤ 0.026
CUCUUGGUAGCCAAGUUGGUUUACGGCGCAAGACUUUAAUUUAUCACUACGAAUUCUUGAGAUCGGGCGUUCGACUCGCCCCCGGGAGAUUUUUUCCUCGAGCAA [C5U A24C A54U]	≤ 0.026
CUCUUGGUAGCCAAGUUGGUUUGAGGCGCAAGACUUUAAUUUAUCACUACGAAAUCUUGAGAUCGGGCGUUCGACUCGCGCCCGGGACAUUUUUUCCUCGAGCAA [C5U A23G C80G G88C]	≤ 0.026
CUCUUGGUAGCCAAGUUGGUUUAAGGCGCAAGACUUUAAUUUAUCACUACGAAAUCUUGAGAUCGGGCGUUCGACUCGCCCCCGGGGGAUUUUUUCCUCGAGCAA [C5U A87G]	0.0561
CUCUUGGUAGCCAAGUUGGUUUAAGGCGCUAGAGUUUAAUUUAUCACUACGAAGUCUUGAGAACGGGCGUUCGACUCGCCCCCGGGACAUUUUUUCCUCGAGCAA [C5U A30U C34G A54G U63A G88C]	≤ 0.026
CUCUUGGUAGCCAAGUUGGUUUUAGGCGCAAGACUUUAAUUUAUCACUACGAAAUCUUGAGAUCGGGCGUUCGACUCGCCCCCGAGAGAUUUUUUCCUCGAGCAA [C5U A23U G85A]	≤ 0.026
CUCUUGGUAGCCAAGUUGGUUUAAGGCGCAAGAAUUUAAUUUAUCACUACGAAAUCUUGAGAUUGGGCGUUCGACUCGCCCCCGGGAGAUUUUUUCCUCGAGCAA [C5U C34A C64U]	≤ 0.026
CUCUUGGUAGCCUAGUUGGUUUACGGCGCAAGACUUUAAUUUAUCACUACGAAAUCUUUAGAUCGGGCGUUCGACUCGCCCCCGGGAGAUUUUUUCCUCGAGCAA [C5U A13U A24C G59U]	≤ 0.026
CUCUUGGUAGCCAAGUUGGUUUGAGCCGCAAGACUUUAAUUUAUCACUACGAAAUCUUGAGAUCGGGCGUUCGACUCACCCCCGGGAGAUUUUUUCCUCGAGCAA [C5U A23G G26C G78A]	≤ 0.026
CUCUUGGUAGCCUAGUUGGUUUAAGGCGCAAGACUUUAAUUUAUCACUACGAAAUCCUGAGAUCGGGCGUUUGACUCGCCCCCGGGAGAUUUUUUCCUCGAGCAA [C5U A13U U57C C72U]	≤ 0.026
CUCUUGGUAGCCAAGUUGGUUUAAGGCGCAAGACUUUAAUUUAUCACUACGAAAUCUUGAGAUCGGGCGUUCGUCCCGCCCCAGGGAGAUUUUUUCCUCGAGCAA [C5U A74U U76C C83A]	≤ 0.026
